Results from the supplement of paper PMC11417369.
This is one part of the list.

Each sequence was assayed on PfHDP1 homeodomain (GST-tagged) (assay: gcPBM binding intensity (ln(normalized median fluorescence intensity)); higher = stronger DNA binding).
Outline: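 Binding of GST-tagged P. falciparum DNA-binding domains, expressed in E. coli and used at about 25 μg on average, was carried out for 1 h in 1× PBS containing 1% milk, 0.2 mg/ml BSA, 0.5% salmon testes DNA and 0.03% Triton X-100. The target was an Agilent 4 × 180k array of primer-extended double-stranded 36-bp intergenic genomic probes plus negative controls, read with Alexa488 anti-GST antibody at 488 nm. Binding intensity is the highest Masliner-normalised natural-log median intensity across replicate spots of either probe orientation.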

Row | Sequence | gcPBM binding intensity (ln)
1 | CATTAACATTTTATTACACACAATAATTTATAAGTA [CACACA_site4083] | 6.64
2 | TTTTTTAAGTAATGAAATGATTTTCTTATAGAATAA [GTGCAC_negctrl_site395] | 5.73
3 | GCTTTTGTCATGTGCACACACGTATATATTATATAT [CACACA_site6146] | 11.5
4 | ATTTATATTTGTATTTGTACTTATATTTATATTTAT [XGTACX_site1540] | 6.28
5 | AAAAAGGTTAAGGTAGTGCATAATAAAGAATATTAA | 8.58
6 | TTAAATAGATAAACTAAACACACAAAAAAAAAAAAA [CACACA_site8308] | 6.23
7 | GCTAAAAGTATATGCACACACATATATATGCACATA [CACACA_site1635] | 11
8 | TTTTGTACTTCATGCGTGCACAGAAATATATTATAT | 9.51
9 | GAATAAGATAGATATACACACCATTATAAATATAAA [CACACA_site5392] | 6.38
10 | TAAATACTAATATGTACACACATATAGATATAGATT [CACACA_site7247] | 6.1
11 | TGTGCAAGATTTTTCTGTACATATATATAAATATAT [XGTACX_site1796] | 6.63
12 | AAATATTCTTGTTTAATACACACTGTAGTATTATAT [CACACA_site433] | 6.77
13 | ATTTATTTATATAATACACACAAATATCTTAATTAA [CACACA_site3993] | 6.41
14 | TGGATATAAAACAACGTGCACTTGGTTGATTTTAAA [GTGCAC_site9900] | 8.31
15 | TATGGTAAATACAACACACACACATATGTATTTATA [CACACA_site4666] | 6.99
16 | TTTTTTTTTTTTTTTTTTGGTGAGAGAAGAAAATTC [CACACA_negctrl_site950] | 6.1
17 | TAGGCCTTAAATCGTGTGCACTTTTTTTTTTTTTTT | 8.22
18 | TATGTGCCAAAACACACACACATATATATATATATA [CACACA_site469] | 9.33
19 | CAAATTATTATTTAAGCACACATGTTTATTTTTTTT [CACACA_site2672] | 6.41
20 | AAATATATCAATATATATATATATATATATATATAT [XGTACX_negctrl_site544] | 9.66
21 | AAGCATACATCAAGCACACACACACCCACACCCACA [CACACA_site372] | 6.67
22 | TTTTGTACAAAAATAATGCACACTATATCAAGTTTT [CACACA_site3595] | 10.4
23 | ATATAAAAAGGAAAAAGTACAAAAAAATGTTTGTGA [XGTACX_site8552] | 6.32

Row | Sequence | gcPBM binding intensity (ln)
24 | AAGAAAATATATTCACATGAAGAATTAAAATAAAAC [TGCATGCA_negctrl_site119] | 6.66
25 | TAATAATTATTGCACGCACACAAAAACCTATAGATT [CACACA_site2931] | 10.6
26 | ATTTATAAAACAGGCACACATATAATAAATTTTATA [CACACA_site2600] | 6.64
27 | ACTATAAATATTTATAAACACACAAATATATATATT [CACACA_site7891] | 6.73
28 | ATTTTTTTTTTTACAGTGGAACCATATTTGCTCATT [CACACA_negctrl_site940] | 7.34
29 | ATACAATACACCGAACGTACATAAATCTATCTTTTA [XGTACX_site3668] | 7.02
30 | TATATATATATAATTTGTACATATATATGTAACAAT [XGTACX_site8728] | 8.94
31 | TTCTGCTACCACTTGAATGTCAATGAAATTAAAAAA [CACACA_negctrl_site1164] | 6.6
32 | AAAGAAATAAAAAAAAGTACACAATTATAAATATAT [XGTACX_site3428] | 6.62
33 | GTATGTAATATTTTAGTGCAAAAAAAAAAAAAAAAA [GTGCAC_site9790] | 9.58
34 | AAAATACTTTGAATTTGTACATATAGACATAATATT [XGTACX_site6181] | 6.43
35 | CGCGAACATACATACACACACATATTTATATAGGTA [CACACA_site6241] | 6.69
36 | ATAATAAATGATAGCACACATATGTACATATATACA [CACACA_site864] | 6.75
37 | AATACCGGAAAGCAAACACACATTTTAAAACCATAA [CACACA_site3862] | 6.73
38 | GATTATCTATCGCTTGAATGAAATGAAATCATGCAA [GTGCAC_negctrl_site471] | 6.09
39 | AAATAAAATAAAAGCACACAAAATGTAAATAATTAT [CACACA_site2775] | 6.63
40 | AACATACCCATATACACACACACATAAATACAGATA [CACACA_site4744] | 7.09
41 | CAAAACAAGCAAAAATGTACTTGATAAATATTTTCT [XGTACX_site1776] | 6.27
42 | ATGTTAATCATTAAAAATAAAGTTTAATATAAGAAT [XGTACX_negctrl_site155] | 6.49
43 | ATTTAATTCTTTTGTTATAAAATTTTAGTATATATA [CACACA_negctrl_site1649] | 6.81
44 | AAATATAAAAAATATACACACATATAAAATCTATAT [CACACA_site7406] | 6.33
45 | TTTTAAAAAAAACAAAAACATTGTCATATGGAAAAT [CACACA_negctrl_site297] | 6.75
46 | GTATGTTAATTTAATTGTACAAAAAGATACACTGAT [XGTACX_site5710] | 6.81

Row | Sequence | gcPBM binding intensity (ln)
47 | AGGAACAATATATTTGCACACAAAAAATATATATTT [CACACA_site3316] | 10.4
48 | CAAAAAAAATTATACACACACACACCGATATATATA [CACACA_site4719] | 6.97
49 | TTTATATATCAATACATTATGTATTAAGTCTTACAT [TGCATGCA_negctrl_site499] | 6.44
50 | GGTATATAAAAATATTGTACGAAAATATGCATATAA [XGTACX_site2501] | 6.96
51 | TTTTAATTAAAAAAATATATAATAAAATTAAATTAT [CACACA_negctrl_site95] | 6.05
52 | ATTATTGTTGTTCATGTACACACTATAATAAAAGCA [CACACA_site4168] | 6.71
53 | TTTATATTGATATATACACACATATACATCCTATTT [CACACA_site7442] | 6.64
54 | TTTTGCAATAATGTTGCACACTAAATAGTCATATAT [CACACA_site7977] | 10.3
55 | ATTAATTATTTCAATGCATGTGAACACTATATATAA [TGCATGCA_site600] | 7.04
56 | TAATTAAAATTATCTACACACCTTTATAAATATATA [CACACA_site3928] | 6.26
57 | CTTATTAAAATTATTTGTACACAATATGTAAAAGTA [XGTACX_site7237] | 6.47
58 | AAAAAAAGTTGATACTGTACTCGTGCATTATGAATA [XGTACX_site5558] | 9.82
59 | AGGTATTTTCTTGTGACACACATATATATATATATT [CACACA_site2220] | 7.15
60 | CATATAAAAAATATGGTGCAGTTTTTTTTTTTTTTT | 6.86
61 | TATATATATAATGTTTGTACATATTAAATATATATG [XGTACX_site407] | 7.53
62 | TAAATATTTTTATGGGTGCGTTCTTTAGCGCAATTT | 6.92
63 | TATATAAATATATATACACACAAAAAAAAAAAAAAA [CACACA_site1406] | 6.49
64 | TATATCTTAATATACACACACACATATATATATATA [CACACA_site4968] | 9.29
65 | TAAATGAAAACCATTAGTACTTATACTGATAAATGT [XGTACX_site763] | 6.07
66 | TAAATACAAAAATGTACACACATATATATATTTTTA [CACACA_site3503] | 6.38
67 | CGGCACATTATATATACACACATATAAATATATACA [CACACA_site8086] | 6.83
68 | TAAATTTTAATATGCACACAAAATGTTATATTAAAA [CACACA_site4366] | 9.86
69 | TTGTATATTATATGTACACACAATAAGTTAATATAA [CACACA_site909] | 6.63

Row | Sequence | gcPBM binding intensity (ln)
70 | ATAATATATTTTTGAACACACAATATAGATTTATAT [CACACA_site7857] | 6.35
71 | TTCCTTTGTCCTAACTGTACTCAAATTTATTAGTGG [XGTACX_site226] | 7.04
72 | AAAAATAAAATAATATGTACATATATAATATATATA [XGTACX_site4786] | 7.09
73 | TATTCGAAAATTATTCAAATTATCTAACATATTATT [TGCATGCA_negctrl_site70] | 5.96
74 | TAATTTTTTAGACACACACACATATAAATATAAATA [CACACA_site6195] | 6.88
75 | AATTGGAAACAACCAAAAAAATTAAAGTTGTATCCT [CACACA_negctrl_site565] | 6.06
76 | ATTTATATAAAGAATGTACACACAGAAATGCACCCA [CACACA_site8715] | 10.7
77 | AATATTAAATGAAAAAGTACAAACAGTCCTATATTA [XGTACX_site1926] | 6.05
78 | AAAAAAAAAAAACATACACACAAATAAATACATACA [CACACA_site6073] | 6.8
79 | CGTATGCACAAATTATGTACTTATATATATATATAT [XGTACX_site2348] | 10.9
80 | TATATATATAAGTGCACACTGAACCAAGAAAATTAT [CACACA_site3008] | 9.71
81 | CGGCACATTATATATACACACATATAAATAAATACA [CACACA_site4477] | 6.74
82 | GGATTGATAAGTGGTACACACATATAGATTATAGAT [CACACA_site7367] | 6.43
83 | AAAAAAAAAAAAAATTGTACATAATAAAAATATGGA [XGTACX_site3189] | 6.35
84 | TGTTTATTCTTTAAATATTATTCAAATACTACAAGT [CACACA_negctrl_site746] | 6.04
85 | AGCAACCTGAAAAAATTACTCTTTCTTAAACAAATT [XGTACX_negctrl_site266] | 5.78
86 | CACAGACACGGACACACACACACACCCATATATATA [CACACA_site4354] | 7.17
87 | ATACAAGAATTAAACACACACAAAATATAAATTCTT [CACACA_site3005] | 6.79
88 | TTAAGGATTAAGGTGTGTACATATAAATATTATATA [XGTACX_site7532] | 6.56
89 | ACCTGTAAAAATGTTTATATATATATATATATATAT [CACACA_negctrl_site1500] | 9.36
